From PubChem BioAssay AID588795 (National Center for Advancing Translational Sciences (NCATS), 2011)
In all, about 390,000 compounds went through this assay and about 1,400 (0.36%) were called active. The inconclusive results got no clear call from the source; some entries with a clear call stand among them for comparison. The call rests on the fitted dose curve; in most records, active means well fitted inhibition curve with a large enough effect; inconclusive means small, poorly fitted or top-dose-only effect; inactive means no such curve, though single readings can be large or run the other way. Potencies beside an inconclusive call are fits to weak or partial responses and may not hold up.

Target: Flap endonuclease 1 (Homo sapiens) (UniProt P39748)
Sequence of UniProt P39748 (P39748 whole entry, looked up): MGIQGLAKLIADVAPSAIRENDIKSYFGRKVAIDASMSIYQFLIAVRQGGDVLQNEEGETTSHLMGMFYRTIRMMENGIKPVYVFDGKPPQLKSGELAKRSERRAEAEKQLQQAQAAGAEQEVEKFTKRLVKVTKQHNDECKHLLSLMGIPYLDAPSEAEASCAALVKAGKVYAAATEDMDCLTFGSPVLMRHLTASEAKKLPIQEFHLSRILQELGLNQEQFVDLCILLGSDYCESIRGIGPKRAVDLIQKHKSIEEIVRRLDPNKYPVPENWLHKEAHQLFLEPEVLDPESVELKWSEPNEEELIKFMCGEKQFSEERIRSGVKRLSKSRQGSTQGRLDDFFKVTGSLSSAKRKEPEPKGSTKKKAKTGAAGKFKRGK
Assay: qHTS Assay for the Inhibitors of Human Flap endonuclease 1 (FEN1). Further: nearly all actives have a fitted effect of over 65% in size.
Conditions: Recombinant FEN1 flap cleavage, fluorescence, 15 min; series mostly up to 114 µM
Procedure, shortened: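 FEN1 at 10 nM, compound pretreatment for 15 min (room temperature), 50 nM final substrate to initiate; endpoint reads at 0 and 15 min; DMSO-only plates used as vehicle background.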
Potency means the concentration at half of the fitted maximal effect; tags describe the fitted curve by direction and shape.

Structure (SMILES) | Potency
CC(=O)c1ccc(OCC(O)CN2CCN(S(=O)(=O)c3c(C)c(C)cc(C)c3C)CC2)cc1 (stereo not drawn) | inconclusive: 89.1 µM [inhibitor, partial curve, poor fit]
O=C(Nc1nc(-c2ccccn2)cs1)c1ccccc1-n1cnnn1 | inconclusive: 100 µM [inhibitor, single point]
COc1ccccc1CCNC(=O)C(=O)NCC(c1ccco1)S(=O)(=O)c1cccs1 (stereo not drawn) | inactive
CN(c1ccccc1C(=O)O)S(=O)(=O)c1ccc2c3c(cccc13)C(=O)N2 | inconclusive: 56.2 µM [inhibitor, partial curve]
Cc1ccc(NC(=O)N2CC3CCCN3c3ccccc32)cc1C (stereo not drawn) | inconclusive: 89.1 µM [inhibitor, partial curve, poor fit]
C=Cc1ncc(OC)c2c1[nH]c1ccccc12 | inconclusive: 50.1 µM [inhibitor, partial curve, poor fit]
COc1ccc(-c2cnc3nc(/N=C/N(C)C)nn3c2/N=C/N(C)C)cc1 | inactive
O=C(C[C@@H]1C/C=C\C[C@@H](NC(=O)OCC2c3ccccc3-c3ccccc32)C(=O)OC[C@@H](Cc2ccccc2)NC1=O)NCCO | inconclusive: 79.4 µM [inhibitor, partial curve, poor fit]
C/C(C/C(C)=C1/SC(=S)NC1=O)=C1\SC(=S)NC1=O | active: 12.6 µM
Nc1ccc(Br)c2cccnc12 | inconclusive: 56.2 µM [inhibitor, partial curve, poor fit]
O=C(N/N=C/c1ccc(N2CCCCC2)o1)c1ccccc1 | inactive
CCc1ccc(CNc2ncc(-c3cccc(OC)c3)n2C)cc1 | inconclusive: 79.4 µM [inhibitor, partial curve]
C#CCN1C(=O)S/C(=C\c2ccc(-c3ccc(Cl)c(C(=O)O)c3)o2)C1=O | inconclusive: 31.6 µM [inhibitor, full curve]
COc1ccc(NC2CCCN(C(=O)c3ccc4nccnc4c3)C2)cc1OC (stereo not drawn) | inactive
O=C(/C=C/c1cccs1)Nc1nc(-c2ccccc2)cs1 | inconclusive: 89.1 µM [inhibitor, partial curve, poor fit]
O=[N+]([O-])c1ccc(Sc2cccc[n+]2[O-])c2nonc12 | active: 22.4 µM
COc1c(Br)cc(/C=N/n2c(-c3ccccc3)n[nH]c2=S)c(O)c1Br | inconclusive: 20 µM [inhibitor, full curve, poor fit]
Cn1c(=O)[nH]c(Nc2ccc(F)cc2)c([N+](=O)[O-])c1=O | inactive
CCOc1ccccc1NC(=O)C1CCCN(S(=O)(=O)c2cccs2)C1 (stereo not drawn) | inconclusive: 89.1 µM [inhibitor, single point]
CCOC(=O)c1ccc(Nc2ncccc2[N+](=O)[O-])cc1 | inactive
O=C(N/N=C/c1ccoc1)c1cc(O)cc(O)c1 | inconclusive: 89.1 µM [inhibitor, single point]
CSc1ccc(/C=N/NC(=O)c2cc(O)cc(O)c2)cc1 | inactive

Structure (SMILES) | Potency
CCOC(=O)c1nc(NCc2ccccc2)sc1C | inactive
CC1=NOC(=O)/C1=C\c1ccc(-c2cccc(Cl)c2)o1 | active: 50.1 µM
Cc1cc2ccccc2n1CCNC(=O)COc1ccc2ccccc2c1 | inconclusive: 50.1 µM [inhibitor, partial curve]
CCOc1ccc2[nH]c3c(N4CCN(C(=O)c5ccco5)CC4)ncnc3c2c1 | inconclusive: 70.8 µM [inhibitor, single point]
C=C1c2cccc(O)c2C(O)=C2C(=O)[C@]3(O)C(O)=C(C(N)=O)C(=O)[C@@H](N(C)C)[C@@H]3[C@@H](O)[C@H]12 | inconclusive: 31.6 µM [inhibitor, partial curve]
C[N+]1(CC(=O)OCCCC2CCCCC2)CCCC1 | inactive
CN(C)c1ccc(/C=C/c2ccnc3ccc(O)cc23)cc1 | inconclusive: 100 µM [inhibitor, partial curve, poor fit]
O=C(COc1ccc2ccc(=O)oc2c1)NC1CCCCC1 | inactive
N#Cc1c(-c2ccccc2)cc(-c2ccccc2)nc1SCC(O)CS(=O)(=O)Cc1ccccc1 (stereo not drawn) | inconclusive: 89.1 µM [inhibitor, partial curve, poor fit]
O=C(Cn1cc(SCc2ccc(F)cc2)c2ccccc21)N1CCCCCC1 | inconclusive: 25.1 µM [inhibitor, single point]
C(=N\Nc1nc(Nc2ccccc2)nc(N2CCOCC2)n1)/c1c[nH]c2ccccc12 | inconclusive: 79.4 µM [inhibitor, partial curve, poor fit]
CCOc1ccc(NC(=O)c2cnn(-c3ccccc3)c2-n2cccc2)cc1 | inconclusive: 89.1 µM [inhibitor, partial curve, poor fit]
COc1cc(/C=N/NC(=O)c2cc(-c3cccn3C)n[nH]2)cc(OC)c1OC | inconclusive: 56.2 µM [inhibitor, single point]
Cc1ccccc1Cn1nnc2c(=O)[nH]c(C3CCCN(C(=O)c4ccc(C(C)(C)C)cc4)C3)nc21 (stereo not drawn) | inconclusive: 70.8 µM [inhibitor, partial curve, poor fit]
COc1ccc(CN(C)C(=O)CNC(=O)c2ccc(C)cc2)cc1 | inactive
CCOc1ccc2nc3cc(N=Nc4ccc(N)nc4N)ccc3c(N)c2c1 | active: 7.08 µM
COc1cccc(C(=O)CC(=O)C(=O)Nc2cccc([N+](=O)[O-])c2C)c1 | inconclusive: 28.2 µM [inhibitor, partial curve]
O=C1NC(=S)SC1=Cc1cc(Br)ccc1O | inconclusive: 89.1 µM [inhibitor, single point]
CC(C)CN(C(=O)COC(=O)c1ccc([N+](=O)[O-])o1)C1CCS(=O)(=O)C1 (stereo not drawn) | inconclusive: 89.1 µM [inhibitor, partial curve, poor fit]
CCCCN(CCCNC(=O)c1cc(Nc2cccc(SC)c2)nc2ccccc12)Cc1ccccc1 | inconclusive: 39.8 µM [inhibitor, partial curve]
O=C1Nc2ccccc2Oc2cc([N+](=O)[O-])cc(Oc3ccccc3)c21 | inconclusive: 79.4 µM [inhibitor, single point]
